Assay results: the supplement of paper PMC11417369
± gives the standard deviation of the averaged measurements. The list shows a part of the results.

Tested on: PfAP2-EXP AP2 domain (GST-tagged)
Experiment: gcPBM binding intensity (ln(normalized median fluorescence intensity)); higher = stronger DNA binding
How it was run: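 After 1 h on an Agilent 4 × 180k array of primer-extended double-stranded 36-bp intergenic genomic probes and negative controls, bound GST-tagged P. falciparum DNA-binding domains were detected with Alexa488 anti-GST antibody and scanned at 488 nm. The domains had been expressed in E. coli, and binding took place in 1× PBS with 1% milk, 0.2 mg/ml BSA, 0.5% salmon testes DNA and 0.03% Triton X-100. Binding intensity is the highest Masliner-normalised natural-log median intensity across replicate spots of either probe orientation.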

Row | Sequence | gcPBM binding intensity (ln)
1 | TTGATCTATAATAATACACACTTACATAATTAATTA [CACACA_site6273] | 8.3 ± 0.35
2 | ATTTTTATTTTTATTTGTACTTATATATTCTTAAGC [XGTACX_site4122] | 8.71 ± 0.43
3 | ATCATATTTATGTTGGTGCATTATGCATGGATTTTA [GTGCAC_site9795] | 8.845 ± 0.035
4 | TTTTTAAATATAAACAAAAAAAAAAAATATATCAAT [XGTACX_negctrl_site328] | 8.54 ± 0.5
5 | AATACCCAAGGACACACACACACATATATATATATA [CACACA_site8345] | 10.2 ± 0.26
6 | ATAATATAAATACAAACACACAATTGTGTCCACATT [CACACA_site6920] | 8.86 ± 0.25
7 | TTTTTATTTAATAGTTGTACATTGAAAAATATGTAT [XGTACX_site3025] | 8.46 ± 0.38
8 | TGATTAAATAAATATATATATTTATATATTATACAG [CACACA_negctrl_site1596] | 8.11 ± 0.33
9 | CAAATAAATATTAAAAGTACACACAGATACACTAAT [XGTACX_site3749] | 8.81 ± 0.3
10 | GCTCTATCAAAAAAATGTACACATATTATCATTCAT [XGTACX_site143] | 8.55 ± 0.3
11 | TATATATATATATATGTGCACTGGACATATTTTTAT [GTGCAC_site9721] | 10.1 ± 0.48
12 | TTTACAAAAAATTATACACACACGTACAGATAAATA [CACACA_site4678] | 8.81 ± 0.44
13 | ACCCATAAAAATTATGCACACTTAATAAAGCGAAAT [CACACA_site5722] | 8.62 ± 0.36
14 | ATAATTTATTTTAAAAGTACTCAATTTGCTTTTCTC [XGTACX_site5749] | 8.51 ± 0.3
15 | TCCTCATTTTATCATACACACTTGTTTATATGGGTG [CACACA_site4650] | 8.74 ± 0.42
16 | AAATAATTAAACATATGTACATATTATATATATATA [XGTACX_site6774] | 9.8 ± 0.085
17 | TATATTTATTATAATTGTACATAAAATAAACTAAGA [XGTACX_site4318] | 8.41 ± 0.39
18 | ATATACATTTAAATGTGTACATAATAAAATAAAAAA [XGTACX_site8170] | 8.89 ± 0.19
19 | CAAAAAAAAAAAAAAACACACATTAAATTAGAAAGA [CACACA_site7271] | 8.4 ± 0.59
20 | AATATTTATATTTAGTGTACAGAAATAAAAAAAAAA [XGTACX_site6066] | 8.49 ± 0.21
21 | GCTAATTTATTTTGCAGTACATATATAATAATATAT [XGTACX_site478] | 8.37 ± 0.16
22 | AAATATATATAAATGAGTACTTATGGTAACATATAT [XGTACX_site6362] | 8.64 ± 0.33
23 | ATAAATAATTATAATTGTACACATATATATATATAC [XGTACX_site3998] | 8.7 ± 0.33

Row | Sequence | gcPBM binding intensity (ln)
24 | TTCCACATTTTACAGACACACACAATTTATATTACG [CACACA_site8572] | 8.72 ± 0.42
25 | AAAAAATATTGAAGTACACACATTATGAACTTTTTT [CACACA_site1733] | 8.36 ± 0.23
26 | AGAGCATAATAAAACACACACATACATACCTATATA [CACACA_site6566] | 8.65 ± 0.45
27 | TGTTTTTATAATATTAGTACATAATATACATAATTC [XGTACX_site2787] | 8.46 ± 0.33
28 | AATAAATTAATTTTGGGTACATATATATATATATAT [XGTACX_site3807] | 10.2 ± 0.23
29 | TTTTGTTTCTATATAAGATGGAAATATAAACTTGTA [CACACA_negctrl_site82] | 8.22 ± 0.4
30 | TTAAGATCCTAAAAAACACACAATTGTGAATAATAA [CACACA_site3872] | 8.69 ± 0.53
31 | GTAAGTTGTGCATTCACACACATATATATATATATA [CACACA_site3303] | 10.2 ± 0.28
32 | TATATATATATATATACATGCATATATATAATATAT [TGCATGCA_site763] | 10.1 ± 0.52
33 | TAAAAAAATTTAACATGTACAAATATTGAAAAGGAC [XGTACX_site7608] | 9.42 ± 0.33
34 | ATTAAAAAAGAATATACACACCAAAACTGTTTGTTA [CACACA_site4687] | 8.09 ± 0.4
35 | AGAAAAAAAAAAAAAAAAAAAAAATTGAATATATAT [TGCATGCA_negctrl_site55] | 8.13 ± 0.41
36 | ATATATTTTTACCATACACACATATAACAAATATAT [CACACA_site7706] | 8.75 ± 0.44
37 | TTTATTATCTTATTCACACACATATATATATATATA [CACACA_site2869] | 10.2 ± 0.41
38 | GAAGAATAAATATGCACACATGCATATATTTTTACA [CACACA_site3459] | 8.515 ± 0.035
39 | TACAATTCGTAATACACACACATATATATATATATT [CACACA_site3751] | 8.62 ± 0.36
40 | TCGAACATTAACATAACACACATATAGATTTATATA [CACACA_site7380] | 8.29 ± 0.42
41 | TATTATATATATAGGTGTACGCATTTGTCCTTTATA [XGTACX_site1385] | 8.77 ± 0.34
42 | AAACTTATGTTTACATGTACAGAACTTTATATTATG [XGTACX_site4843] | 8.58 ± 0.31
43 | TTGTATGCTTCCCGACTACATTATGCCATAAATGTA [TGCATGCA_negctrl_site136] | 8.71 ± 0.45
44 | TTATTCTTTAACTAAAATTATATATATATATTATAC [CACACA_negctrl_site1597] | 8.38 ± 0.34
45 | AATAAAAATATATCCACACACATATATAAATATGTA [CACACA_site6415] | 8.16 ± 0.36
